Data: US20230322724A1, “HETEROCYCLIC COMPOUNDS AS CBP/EP300 BROMODOMAIN INHIBITORS” (AURIGENE ONCOLOGY LIMITED, priority 2020, published 2023)
Some results were stated once for a whole list of compounds, not compound by compound. For some assays here: At least one structure is not confirmed: it was looked up by name or label, or the drawing left a doubt.

How the values were obtained:
Assay type in all cases: binding
Conditions in all cases: dose-response, read-out: IC50 (group A, B, C)
[1] = molecular target: T1, recombinant BRD4 FL bromodomain (Homo sapiens, UniProt O60885); test: BRD4 FL TR-FRET displacement assay
T1 construct: fused on or other part: 6xHis tag, inferred from detection with Mab ANTI 6HIS-XL665
How it was run: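 Recombinant BRD4 FL (10 nM) pre-incubated 30 min at room temperature with 300 nM biotinylated acetyl-histone H4 (K5/8/12/16) in 50 mM HEPES pH 7.5, 50 mM NaCl, 500 μM CHAPS, then added to compounds for 30 min. Stopped with Eu-streptavidin/anti-6His-XL665 in KF; 665/615 nm ratio fitted sigmoidally for IC50.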

[2] = molecular target: T2, recombinant CREBBP bromodomain (Homo sapiens, UniProt Q92793); test: CBP TR-FRET displacement assay
T2 construct: recombinant CREBBP bromodomain obtained from BPS Bioscience, USA; purchased BPS Bioscience, USA
T2 sequence (Q92793 1085-1192 limits assumed): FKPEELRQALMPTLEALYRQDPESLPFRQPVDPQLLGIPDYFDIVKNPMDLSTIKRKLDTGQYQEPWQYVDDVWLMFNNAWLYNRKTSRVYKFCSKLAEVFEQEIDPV
Description: (§1) The potency of compounds to inhibit CREBBP enzyme was tested in a TR-FRET displacement assay using recombinant CREBBP bromodomain obtained from BPS Bioscience, USA. The assay buffer was 50 mM HEPES (pH 7.5), 50 mM NaCl, 0.008% Brij 35, 0.01% BSA, 1 mM TCEP. 50 nM of CREBBP & 500 nM of Biotinylated ligand was incubated at room temperature for 30 minutes, the reaction was initiated by adding pre-incubated enzyme ligand mixture to the test compounds. After 60 min incubation, the reaction was stopped by the addition of stop mix containing 1 nM of LANCE Europium-anti-6xHis antibody (Perkin Elmer, USA) and 40 nM of Sure Light Allophycocyanin-Streptavidin (Perkin Elmer, USA). Fluorescence emission of the samples at 665 and 615 nm were measured at an excitation of 340 nm and their ratio was plotted against the compound concentrations to generate dose-response curve. The percent inhibition of the test compounds is calculated using the ratio of enzyme activity controls.
elected compounds of the present invention were screened in the above-mentioned assay procedures and IC50 values were determined by fitting the dose-response data to sigmoidal curve fitting equation using Graph pad prism software V7.

[3] = molecular target: T3, recombinant P300 bromodomain (Homo sapiens, UniProt Q09472); test: P300 TR-FRET displacement assay
T3 construct: recombinant P300 bromodomain obtained from BPS Bioscience, USA; purchased BPS Bioscience, USA
T3 sequence (Q09472 1049-1156 limits assumed): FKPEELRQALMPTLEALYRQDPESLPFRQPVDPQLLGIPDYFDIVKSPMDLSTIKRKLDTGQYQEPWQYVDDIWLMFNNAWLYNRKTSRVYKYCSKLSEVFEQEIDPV
Description: as §1, with “P300” for “CREBBP”, “adding the” for “adding”, “curve.” for “curve. The percent inhibition of the test compounds is calculated using the ratio of enzyme activity controls.”
Selected compounds of the present invention were screened in the above-mentioned assay procedures and IC50 values were determined by fitting the dose-response data to sigmoidal curve fitting equation using Graph pad prism software V7.

Row | IC50 [1] [µM] | IC50 [2] [µM] | IC50 [3] [µM] | Structure (SMILES)
1 | > 5 | > 0.01 |  | Cc1cc2c(N3CCN(C)c4cc(-c5cnn(C)c5)ncc43)nc(N3CCC(O)C3)cc2n(C)c1=O (centres unmarked) [Example 207]
2 |  | > 0.01 |  | COc1cc(N2CCN(C)c3cc(N4CCCC(C#N)C4)ncc32)c2cc(C)c(=O)n(C)c2c1 (centres unmarked) [Example 120]
3 | < 2 | > 0.01 |  | CCc1cc2c(N3CCN(C)c4cc(-c5cnn(C)c5)c(C#N)cc43)cccc2[nH]c1=O [Example 50]
4 |  | > 0.01 |  | Cc1cc2c(N3CCN(C)c4cc(N5CCCCC5)ncc43)cc(N3CCOCC3)cc2n(C)c1=O [Example 139]
5 | > 5 | > 0.01 |  | CNC(=O)C1CCCN1c1cc2c(cc(C)c(=O)n2C)c(N2CCN(C)c3cc(-c4cnn(C)c4)ncc32)n1 (centres unmarked) [Example 206]
6 |  | > 0.01 |  | Cc1cc2c(N3CCN(C)c4cc(C5CCOC5)ncc43)cc(N3CCOCC3)cc2n(C)c1=O (centres unmarked) [Example 137]
7 |  | > 0.01 |  | CNC(=O)C1CCN(c2cc3c(cn2)N(c2cc(OC)cc4c2cc(C)c(=O)n4C)CCN3C)C1 (centres unmarked) [Example 123]
8 |  | > 0.01 |  | COc1cc(N2CCN(C)c3cc(N4CCCC(NC(C)=O)C4)ncc32)c2cc(C)c(=O)n(C)c2c1 (centres unmarked) [Example 122]
9 | > 5 | > 0.01 |  | CCN1CCN(c2cc(OC)cc3c2cc(C)c(=O)n3C)c2cnc(N3CCN(C(C)=O)CC3)cc21 [Example 118]
10 |  | > 0.01 |  | COc1cc(N2CCN(C)c3cc(N4CCN(C(C)=O)CC4)ncc32)c2cc(C)c(=O)n(C)c2c1 [Example 119]
11 |  | > 0.01 |  | COc1cc(N2CCCc3ccc(-c4cn[nH]c4)cc32)c2cc(C)c(=O)n(C)c2c1 [Example 198, 7′-Methoxy-1′,3′-dimethyl-7-(1H-pyrazol-4-yl)-3,4-dihydro-2H-[1,5′-biquinolin]-2′(1′H)-one]
12 |  | > 0.01 |  | CN1CCN(c2cccc3c2ccc(=O)n3C)c2cc(C#N)c(-c3cnn(C)c3)cc21 [Example 51]
13 |  | > 0.01 |  | CNC(=O)C1CCCN1c1cc2c(cn1)N(c1cc(OC)cc3c1cc(C)c(=O)n3C)CCN2C (centres unmarked) [Example 121]
14 |  | > 0.01 |  | COc1cc(N2CCCc3ccc(NC(C)=O)cc32)c2cc(C)c(=O)n(C)c2c1 [Example 196, N-(7′-methoxy-1′,3′-dimethyl-2′-oxo-1′,2′,3,4-tetrahydro-2H-[1,5′-biquinolin]-7-yl)acetamide]
15 | < 2 | < 0.05 | < 0.025 | Cc1cc2c(N3CCN(C)c4cc(-c5cnn(C)c5)c(C#N)cc43)cc(OCC3CCCN(C)C3)cc2n(C)c1=O (single isomer, unassigned) [Example 248, 4-(1,3-Dimethyl-7-((1-methylpiperidin-3-yl)methoxy)-2-oxo-1,2-dihydroquinolin-5-yl)-1-methyl-7-(1-methyl-1H-pyrazol-4-yl)-1,2,3,4-tetrahydroquinoxaline-6-carbonitrile]
16 |  | > 0.01 |  | Cc1cc2c(N3CCN(C)c4cc(C5CC5)ncc43)cc(N3CCOCC3)cc2n(C)c1=O [Example 138]
17 | < 2 | > 0.01 |  | COc1cc(N2CCCc3ccc(NS(C)(=O)=O)cc32)c2cc(C)c(=O)n(C)c2c1 [Example 197, N-(7′-methoxy-1′,3′-dimethyl-2′-oxo-1′,2′,3,4-tetrahydro-2H-[1,5′-biquinolin]-7-yl)methanesulfonamide]
18 | > 5 | > 0.01 |  | CNC(=O)C1CCN(c2cc3c(cn2)N(c2cc(OC)cc4c2cc(C)c(=O)n4C)CCN3C)CC1 [Example 117]
19 |  | > 0.01 |  | Cc1cc2c(N3CCCc4cc(-c5cnn(C)c5)c(C(F)F)cc43)nc(-n3ccnc3)cc2n(C)c1=O [Example 204]
20 |  | > 0.01 |  | COc1cc(N2CCCc3ccc(S(=O)(=O)NC(C)=O)cc32)c2cc(C)c(=O)n(C)c2c1 [Example 199, N-((T-methoxy-1′,3′-dimethyl-2′-oxo-1′,2′,3,4-tetrahydro-2H-[1,5′-biquinolin]-7 yl)sulfonyl)acetamide]
21 |  | > 0.01 |  | CN1CCN(c2cccc3[nH]c(=O)ccc23)c2cc(C#N)c(-c3cnn(C)c3)cc21 [Example 52]
